# Assay results published in PubChem BioAssay AID485294 (National Center for Advancing Translational Sciences (NCATS), 2010).
# Out of some 370,000 compounds screened, about 150 (0.041%) were called active. The shares of active, inactive and inconclusive entries below differ from those in the screen. The call rests on the fitted dose curve; in most records, active means well fitted inhibition curve with a large enough effect; inconclusive means small, poorly fitted or top-dose-only effect; inactive means flat fitted curve, though single readings scatter. Potencies of inconclusive entries are left out as doubtful fits.
# Molecular target: Beta-lactamase (Escherichia coli (strain K12)) (UniProt P00811)
# Sequence of UniProt P00811 (P00811 whole entry, looked up): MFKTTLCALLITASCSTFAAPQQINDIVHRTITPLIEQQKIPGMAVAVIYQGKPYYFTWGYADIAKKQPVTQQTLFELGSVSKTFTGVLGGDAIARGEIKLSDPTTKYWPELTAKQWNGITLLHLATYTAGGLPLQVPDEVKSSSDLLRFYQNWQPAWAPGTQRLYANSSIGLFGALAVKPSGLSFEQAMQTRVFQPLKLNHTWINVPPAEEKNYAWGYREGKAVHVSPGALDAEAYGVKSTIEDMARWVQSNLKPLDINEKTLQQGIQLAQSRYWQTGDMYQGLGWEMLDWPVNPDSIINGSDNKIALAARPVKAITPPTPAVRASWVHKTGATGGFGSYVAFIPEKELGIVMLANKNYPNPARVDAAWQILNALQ
# Assay: qHTS Inhibitors of AmpC Beta-Lactamase (assay with detergent); further: nearly all actives have a fitted effect of over 25% in size;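 on activity change, negative = inhibition: 0% = no-compound wells and -100% = no-enzyme wells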
# Conditions: AmpC hydrolysis of nitrocefin, absorbance 480 nm, 0.01% Triton; activity change, negative = inhibition: at 114 µM (top of the series)
# Summary of the method: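 20 mM phosphate pH 7.0 + 0.01% (detergent screen) or 0.0001% Triton X-100; 5.3 nM AmpC reagent; cpd preinc 15 min RT; nitrocefin (800 uM stock) to start; A480 q20 s × 4 min; Activity was normalised to no-enzyme and no-compound control wells.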
# Potency means the concentration at half of the fitted maximal effect; tags describe the fitted curve by direction and shape.
Structure (SMILES),Potency,"activity change, negative = inhibition"
CCOC(=O)C(CCCOc1cccc(CC)c1)C(=O)OCC,"inconclusive [inhibitor, full curve, poor fit]",–
O=C(c1cc2c(s1)-c1ccccc1OC2)N1CCN(c2ccccn2)CC1,"inconclusive [inhibitor, full curve, poor fit]",–
CCn1c(=O)c2cc(C(=O)N(CCCOC(C)C)Cc3ccco3)sc2c2ccccc21,–,inactive: -12.5%
Nc1c(C(=O)NCc2ccco2)nnn1CC(=O)Nc1ccc2c(c1)OCO2,"inconclusive [inhibitor, full curve]",–
CCN(CC(=O)NCc1cccs1)C(=O)c1ccc(S(=O)(=O)Nc2ccccc2)cc1,"inconclusive [inhibitor, partial curve, poor fit]",–
CCCn1cc(S(=O)(=O)c2ccccc2)c(=O)c2cc(F)c(N3CCN(C)CC3)cc21,"inconclusive [inhibitor, full curve, poor fit]",–
Cc1ccc(-n2c(SCC3CNC(=O)O3)nnc2-c2ccccc2)cc1C (stereo unspecified),"inconclusive [inhibitor, full curve, poor fit]",–
CCC(C)(C)NC(=O)C(c1ccc(OC)cc1)N(C(=O)CCC(=O)Nc1cc(C)on1)c1ccccc1F (stereo unspecified),"inconclusive [inhibitor, single point]",–
Fc1cccc(/C=N/Nc2nccnc2Cl)c1,–,inactive: 4.98%
Cc1nnsc1S(=O)c1ccc(Cl)cc1 (stereo unspecified),"inconclusive [inhibitor, full curve, poor fit]",–
CN(C)CCNc1nc(S(=O)(=O)c2ccccc2)c(Cl)s1,"inconclusive [inhibitor, full curve, poor fit]",–
COc1ccccc1CN1CCNC(=O)C1CC(=O)N(C)Cc1nc(C)cs1 (stereo unspecified),"inconclusive [inhibitor, full curve]",–
c1ccc(-c2noc(CC3CCCCC3)n2)cc1,–,inactive: 3.52%
COc1ccccc1C(=O)Nc1ccc2nc(N3CCC(C)CC3)cc(C)c2c1,–,inactive: 11.7%
c1ccc2c(c1)OCCc1c-2[nH]c2ccccc12,–,inactive: -10.2%
O=C(Cn1nnc(-c2ccccc2)n1)N/N=C/c1cc([N+](=O)[O-])c(Cl)cc1Cl,"inconclusive [inhibitor, full curve]",–
COc1ccc(C(=O)COC(=O)CCC(=O)Nc2ccc(C(C)=O)cc2)cc1,"inconclusive [inhibitor, partial curve, poor fit]",–
Cc1cc(C(=O)CS(=O)c2ccc(F)cc2)cc(C)c1OC(=O)N(C)C (stereo unspecified),"inconclusive [inhibitor, full curve]",–
COc1cc(/C=C/C(=O)OCC(=O)NCc2ccccc2OC)ccc1O,"inconclusive [inhibitor, full curve, poor fit]",–
COCC(=O)Nc1cc(C)cn(Cc2cccc(C(F)(F)F)c2)c1=O,"inconclusive [inhibitor, partial curve]",–
O=C(CCCN1C(=O)C(c2ccccc2)Oc2cccnc21)NCCc1ccc(Cl)cc1 (stereo unspecified),–,inactive: -4.88%

Structure (SMILES),Potency,"activity change, negative = inhibition"
O=C1CCc2cc(NS(=O)(=O)c3ccc(Br)cc3)cc3c2N1CC3,"inconclusive [inhibitor, full curve, poor fit]",–
COc1cc(NC(=O)c2cccnc2SC)cc(OC)c1OC,"inconclusive [inhibitor, partial curve, poor fit]",–
CN(CC(=O)Nc1c(Cl)cccc1Cl)C(=O)c1ccc2nc[nH]c2c1,"inconclusive [inhibitor, partial curve]",–
Cc1ccc(CNC(=O)C(=O)NCC(c2cccs2)S(=O)(=O)c2ccc(C)cc2)cc1 (stereo unspecified),"inconclusive [inhibitor, partial curve, poor fit]",–
C/C(=N\NC(=O)c1cccc(S(=O)(=O)Nc2ccccc2Cl)c1)c1ccco1,"inconclusive [inhibitor, full curve]",–
CC1(C)S[C@@H]2[C@H](NC(=O)[C@H](N)c3ccccc3)C(=O)N2[C@H]1C(=O)O,active: 44.7 µM,–
Cc1ccc(Cl)cc1-n1c(O)c(C=NCCCN2CCOCC2)c(=O)[nH]c1=O,"inconclusive [inhibitor, full curve, poor fit]",–
Cc1ccc2c(c1)c1c3n2CCN(CC(O)CNC(C)C)C3CCC1 (stereo unspecified),"inconclusive [inhibitor, partial curve]",–
CC(C)CC(OC(=O)c1cccs1)C(=O)NCC1CCCO1 (stereo unspecified),"inconclusive [inhibitor, full curve, poor fit]",–
CCCCCOCC(O)CCC(=O)NN (stereo unspecified),"inconclusive [inhibitor, full curve, poor fit]",–
O=C(CC1CC2CCC1C2)NCCc1ccc(Cl)cc1 (stereo unspecified),"inconclusive [inhibitor, partial curve, poor fit]",–
CN(C)C(CNC(=O)c1cccc(S(=O)(=O)NCc2ccccc2)c1)c1ccco1 (stereo unspecified),"inconclusive [inhibitor, partial curve]",–
O=C(O)C1CC(=O)N(CCc2c[nH]c3ccccc23)C1 (stereo unspecified),"inconclusive [inhibitor, partial curve, poor fit]",–
COc1ccc(Cl)cc1NC(=O)c1oc(C)nc1C,"inconclusive [inhibitor, partial curve, poor fit]",–
O=C(NC1CCCC1)C1CC1c1ccccc1 (stereo unspecified),"inconclusive [inhibitor, single point]",–
COc1ccc(/C=C2\SC(=S)N(CCCC(=O)Nc3ccccn3)C2=O)cc1OC,–,inactive: 2.63%
O=C(NCCCSc1ccccc1)c1cc(Cl)ccc1O,–,inactive: 0.494%
Cn1cnnc1Sc1cc(N2CCN(S(=O)(=O)c3ccc4ccccc4c3)CC2)ccc1[N+](=O)[O-],"inconclusive [inhibitor, single point]",–
CCCC1(CCC)C(=O)NC(=NCc2ccccc2)NC1=O,"inconclusive [inhibitor, partial curve]",–
Oc1c(/C=N/c2ncn[nH]2)ccc2ccccc12,"inconclusive [inhibitor, single point]",–
